Measured values reported in ChEMBL document CHEMBL2163248, “Classification of inhibitors of hepatic organic anion transporting polypeptides (OATPs): influence of protein expression on drug-drug interactions” (J Med Chem, 2012).

Columns and labels:
[1] = target: T1, Solute carrier organic anion transporter family member 2B1 (Homo sapiens, UniProt O94956); assay: Inhibition of human liver OATP2B1 expressed in HEK293 Flp-In cells assessed as reduction in [3H]E3S uptake at 20 uM incubated for 5 mins by scintillation counting; conditions: hek293, 5 min
T1 sequence (O94956 whole entry): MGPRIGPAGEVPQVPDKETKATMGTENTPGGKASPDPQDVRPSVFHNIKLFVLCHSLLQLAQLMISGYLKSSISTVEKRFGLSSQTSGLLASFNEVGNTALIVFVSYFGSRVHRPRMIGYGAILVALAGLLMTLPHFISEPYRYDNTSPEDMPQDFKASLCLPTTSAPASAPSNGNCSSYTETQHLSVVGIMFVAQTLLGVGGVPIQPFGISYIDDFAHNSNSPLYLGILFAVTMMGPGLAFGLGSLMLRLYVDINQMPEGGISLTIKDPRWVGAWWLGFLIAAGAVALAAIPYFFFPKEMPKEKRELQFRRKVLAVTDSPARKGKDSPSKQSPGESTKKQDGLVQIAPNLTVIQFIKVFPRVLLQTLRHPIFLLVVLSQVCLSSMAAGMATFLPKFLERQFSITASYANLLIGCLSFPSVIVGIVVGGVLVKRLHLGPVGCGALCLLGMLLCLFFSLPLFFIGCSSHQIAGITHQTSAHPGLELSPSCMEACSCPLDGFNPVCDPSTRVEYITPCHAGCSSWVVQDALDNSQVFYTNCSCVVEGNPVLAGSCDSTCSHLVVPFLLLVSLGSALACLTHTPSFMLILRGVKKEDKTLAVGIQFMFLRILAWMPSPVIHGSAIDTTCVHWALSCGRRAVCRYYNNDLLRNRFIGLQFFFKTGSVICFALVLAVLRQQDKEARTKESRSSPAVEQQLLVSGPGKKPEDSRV

[2] = target: T2, Solute carrier organic anion transporter family member 1B1 (Homo sapiens, UniProt Q9Y6L6); assay: Inhibition of human liver OATP1B1 expressed in HEK293 Flp-In cells assessed as reduction in E17-betaG uptake at 20 uM by scintillation counting; conditions: hek293, 20 µM
T2 sequence (Q9Y6L6 whole entry): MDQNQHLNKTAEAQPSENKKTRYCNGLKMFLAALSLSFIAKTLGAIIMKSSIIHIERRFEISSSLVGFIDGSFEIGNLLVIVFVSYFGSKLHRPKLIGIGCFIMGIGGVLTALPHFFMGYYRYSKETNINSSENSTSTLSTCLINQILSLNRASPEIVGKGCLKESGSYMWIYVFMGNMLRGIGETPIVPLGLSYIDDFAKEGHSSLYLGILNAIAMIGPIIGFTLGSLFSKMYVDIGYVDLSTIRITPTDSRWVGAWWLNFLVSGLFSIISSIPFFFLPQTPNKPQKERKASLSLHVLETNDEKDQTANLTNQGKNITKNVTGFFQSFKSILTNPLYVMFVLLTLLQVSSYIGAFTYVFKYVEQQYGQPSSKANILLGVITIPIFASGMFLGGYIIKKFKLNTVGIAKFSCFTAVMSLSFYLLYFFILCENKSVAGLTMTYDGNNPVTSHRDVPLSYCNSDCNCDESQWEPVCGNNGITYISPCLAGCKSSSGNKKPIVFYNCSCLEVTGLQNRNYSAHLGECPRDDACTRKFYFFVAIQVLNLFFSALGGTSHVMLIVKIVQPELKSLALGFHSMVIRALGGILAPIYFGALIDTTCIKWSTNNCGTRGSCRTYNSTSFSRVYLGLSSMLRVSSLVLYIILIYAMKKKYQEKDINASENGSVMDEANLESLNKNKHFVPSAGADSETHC

[3] = target: T2, Solute carrier organic anion transporter family member 1B1; assay: Ratio of Vmax to Km for human liver OATP1B1 expressed in HEK293 Flp-In cells assessed per mg protein; format: ADME, cell-based
[4] = target: T2, Solute carrier organic anion transporter family member 1B1; assay: Activity at human liver OATP1B1 expressed in HEK293 Flp-In cells assessed as rate of compound transport per mg of protein; format: ADME, cell-based
[5] = target: T3, Solute carrier organic anion transporter family member 1B3 (Homo sapiens, UniProt Q9NPD5); assay: Activity at human liver OATP1B3 expressed in HEK293 Flp-In cells; format: ADME, cell-based
T3 sequence (Q9NPD5 whole entry): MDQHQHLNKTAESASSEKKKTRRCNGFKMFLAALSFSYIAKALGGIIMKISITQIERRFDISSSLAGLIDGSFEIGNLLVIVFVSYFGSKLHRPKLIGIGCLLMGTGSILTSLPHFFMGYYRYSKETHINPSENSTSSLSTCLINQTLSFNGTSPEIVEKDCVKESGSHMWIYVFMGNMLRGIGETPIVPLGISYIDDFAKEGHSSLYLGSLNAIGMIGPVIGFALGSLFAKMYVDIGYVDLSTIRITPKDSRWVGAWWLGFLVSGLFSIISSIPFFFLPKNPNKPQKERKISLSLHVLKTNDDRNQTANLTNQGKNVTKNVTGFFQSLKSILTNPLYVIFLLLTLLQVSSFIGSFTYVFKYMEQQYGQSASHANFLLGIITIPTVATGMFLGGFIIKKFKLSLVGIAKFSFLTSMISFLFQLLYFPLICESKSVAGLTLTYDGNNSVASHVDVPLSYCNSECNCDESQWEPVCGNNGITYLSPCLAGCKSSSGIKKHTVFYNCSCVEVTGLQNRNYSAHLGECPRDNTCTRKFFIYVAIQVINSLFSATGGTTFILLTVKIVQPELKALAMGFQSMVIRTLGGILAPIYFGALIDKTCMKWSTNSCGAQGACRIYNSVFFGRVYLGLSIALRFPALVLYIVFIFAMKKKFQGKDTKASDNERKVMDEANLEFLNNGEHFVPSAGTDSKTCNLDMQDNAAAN

[6] = target: T3, Solute carrier organic anion transporter family member 1B3; assay: Activity at human liver OATP1B3 expressed in HEK293 Flp-In cells assessed as rate of compound transport per mg of protein; format: ADME, cell-based
[7] = target: T2, Solute carrier organic anion transporter family member 1B1; assay: Activity at human liver OATP1B1 expressed in HEK293 Flp-In cells; format: ADME, cell-based
[8] = target: T3, Solute carrier organic anion transporter family member 1B3; assay: Inhibition of human liver OATP1B3 expressed in HEK293 Flp-In cells assessed as reduction in [3H]E17-betaG uptake at 20 uM incubated for 5 mins by scintillation counting; conditions: hek293, 5 min

Structure (SMILES)	INH [1] [%]	INH [2] [%]	Vmax/Km [3] [µL/min]	Vmax [4] [pmol/min]	Km [5] [µM]	Vmax [6] [pmol/min]	Km [7] [µM]	INH [8] [%]
CC(C)NCC(O)COc1ccc(CC(N)=O)cc1 (stereo not drawn) [ATENOLOL]	6.8	20.6						
CC(C)c1c(C(=O)Nc2ccccc2)c(-c2ccccc2)c(-c2ccc(F)cc2)n1CC[C@@H](O)C[C@@H](O)CC(=O)O [ATORVASTATIN]	98.3	96	8.58	6.61	0.73	2.29	0.77	74.4
O=C(O)COCCN1CCN(C(c2ccccc2)c2ccc(Cl)cc2)CC1 (stereo not drawn) [CETIRIZINE]	29.9	35.7						40.3
CN1C(=O)CN=C(c2ccccc2)c2cc(Cl)ccc21 [DIAZEPAM]	51.4							9.3
CCOC(=O)N1CCC(=C2c3ccc(Cl)cc3CCc3cccnc32)CC1 [LORATADINE]	28.1	43.2						45
